Measured values published in the supplement of paper PMC6089552.
Out of some 3,200 compounds screened, about 300 (9.4%) showed activity. The entries are a selection whose mix differs from that of the whole data set.

Test system: A673/TR/shEF
Experiment: cell viability (LOESS-normalised, relative to median of negative controls) (log2 ratio); higher = more viable cells (less compound effect), active = hit call of the paper (over 3 MAD below the median)
Conditions: treatment time: 72 h
In short: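 A673/TR/shEF Ewing sarcoma cells were plated at 1,500 per well in 384-well plates and cultured with or without doxycycline, added 24 h before compounds, to induce EWS-FLI1 shRNA knockdown. Library compounds at two or more concentrations, alongside DMSO controls, were applied for three days. Cell viability was measured by CellTiter-Glo luminescence on an Envision reader. Readings were LOESS-corrected per plate, divided by the median of negative controls and log2-transformed, and hits were wells lying at least three median absolute deviations from the median of all screened wells.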

[1] = 0.25 µM, library screen: screen1, EWS-FLI1 expression: high (no doxycycline)
[2] = 0.25 µM, library screen: screen1, EWS-FLI1 expression: low (doxycycline-induced shRNA knockdown)
[3] = 2.5 µM, library screen: screen1, EWS-FLI1 expression: high (no doxycycline)
[4] = 2.5 µM, library screen: screen1, EWS-FLI1 expression: low (doxycycline-induced shRNA knockdown)
[5] = 0.25 µM, library screen: screen2, EWS-FLI1 expression: high (no doxycycline)
[6] = 0.25 µM, library screen: screen2, EWS-FLI1 expression: low (doxycycline-induced shRNA knockdown)
[7] = 2.5 µM, library screen: screen2, EWS-FLI1 expression: high (no doxycycline)
[8] = 2.5 µM, library screen: screen2, EWS-FLI1 expression: low (doxycycline-induced shRNA knockdown)
[9] = 0.103 µM, library screen: screen3, EWS-FLI1 expression: high (no doxycycline)
[10] = 0.103 µM, library screen: screen3, EWS-FLI1 expression: low (doxycycline-induced shRNA knockdown)
[11] = 0.308 µM, library screen: screen3, EWS-FLI1 expression: high (no doxycycline)
[12] = 0.308 µM, library screen: screen3, EWS-FLI1 expression: low (doxycycline-induced shRNA knockdown)
[13] = 0.926 µM, library screen: screen3, EWS-FLI1 expression: high (no doxycycline)
[14] = 0.926 µM, library screen: screen3, EWS-FLI1 expression: low (doxycycline-induced shRNA knockdown)
[15] = 2.8 µM, library screen: screen3, EWS-FLI1 expression: high (no doxycycline)
[16] = 2.8 µM, library screen: screen3, EWS-FLI1 expression: low (doxycycline-induced shRNA knockdown)
[17] = 8.3 µM, library screen: screen3, EWS-FLI1 expression: high (no doxycycline)
[18] = 8.3 µM, library screen: screen3, EWS-FLI1 expression: low (doxycycline-induced shRNA knockdown)
[19] = 25 µM, library screen: screen3, EWS-FLI1 expression: high (no doxycycline)
[20] = 25 µM, library screen: screen3, EWS-FLI1 expression: low (doxycycline-induced shRNA knockdown)

Measured: cell viability (log2)

CC(=O)O[C@@H]1CC[C@@]2(C)C(C[C@@H](OC(C)=O)[C@@]3(C)C4=CC(=O)O[C@@H](c5ccoc5)[C@]4(C)CCC23)C1(C)C (some centres not stated)
inactive: [1] -0.00795 | [2] 0.0487 | [3] 0.121 | [4] 0.0464

O=C(O)CCCC[C@@H]1CCSS1
inactive: [5] 0.146 | [6] 0.0722 | [7] 0.201 | [8] 0.0443

CC(=O)O[C@H]1C[C@@H](O)C(C)(C)[C@@H]2C[C@@H](OC(C)=O)[C@]3(C)[C@H](CC[C@@]4(C)[C@@H](c5ccoc5)OC(=O)[C@H]5O[C@@]534)[C@@]12C
inactive: [1] 0.0499 | [2] 0.125 | [3] 0.125 | [4] 0.111

Cc1cc(O)c(C)c2c1C(=O)Oc1c(C)c(O)c(C(=O)O)c(C)c1O2
inactive: [1] 0.09 | [2] 0.103 | [3] 0.0454 | [4] 0.145

O=C1Nc2ccc(I)cc2/C1=C/c1cc(Br)c(O)c(Br)c1
inactive: 0.025 µM, library screen: screen1, EWS-FLI1 expression: high (no doxycycline) 0.115 | 0.025 µM, library screen: screen1, EWS-FLI1 expression: low (doxycycline-induced shRNA knockdown) -0.011 | [1] 0.134 | [2] -0.0458 | [5] 0.275 | [6] 0.0983 | [3] 0.0489 | [4] 0.0445 | [7] 0.0633 | [8] 0.123 | 25 µM, library screen: screen1, EWS-FLI1 expression: high (no doxycycline) -0.0847 | 25 µM, library screen: screen1, EWS-FLI1 expression: low (doxycycline-induced shRNA knockdown) 0.107

COc1cc(NS(=O)(=O)c2ccc(N)cc2)nc(OC)n1
inactive: [1] 0.0282 | [2] -0.0293 | [3] 0.153 | [4] 0.0706

C=N[C@@H](C(=O)N[C@@H]1C(=O)N2[C@@H]1SC(C)(C)[C@@H]2C(=O)O)c1ccccc1
inactive: [1] 0.0691 | [2] 0.129 | [3] 0.137 | [4] 0.108

CC1(C)O[C@@H]2[C@@H](CO[C@@]3(COS(N)(=O)=O)OC(C)(C)O[C@@H]23)O1
inactive: [9] 0.0446 | [10] 0.0518 | [11] 0.131 | [12] 0.0753 | [13] -0.0108 | [14] 0.141 | [15] 0.0703 | [16] 0.0655 | [17] 0.0296 | [18] 0.0661 | [19] 0.175 | [20] 0.0273

COc1cc2ccc(=O)oc2cc1O
inactive: [1] 0.00519 | [2] -0.0513 | [3] 0.0452 | [4] 0.0897

CC(C)Cn1cnc2c(N)nc3ccccc3c21
inactive: [9] 0.182 | [10] 0.0724 | [11] 0.178 | [12] 0.0451 | [13] 0.11 | [14] 0.0767 | [15] 0.106 | [16] 0.0301 | [17] 0.107 | [18] 0.0861 | [19] 0.124 | [20] 0.115

CC(=O)OCC(=O)[C@@]1(O)[C@H](OC(C)=O)C[C@H]2[C@@H]3CCC4=CC(=O)C=C[C@]4(C)[C@@]3(F)[C@@H](O)C[C@@]21C
inactive: [1] 0.15 | [2] 0.106 | [3] 0.0924 | [4] -0.0304

NC(=O)N1c2ccccc2CC(=O)c2ccccc21
inactive: [1] 0.13 | [2] 0.0766 | [3] 0.178 | [4] 0.0711

Cc1nnc(SCC(=O)N2c3cc(C)c(C)cc3-c3c(ssc3=S)C2(C)C)s1
inactive: [1] 0.0437 | [2] 0.1 | [3] 0.106 | [4] 0.371

COc1c(C(=O)O)ccc2c1CCC(C)(C)O2
inactive: [1] 0.0873 | [2] 0.0519 | [3] 0.206 | [4] -0.0164

Cc1ccncc1Nc1ncccc1C(=O)Nc1ccc(C2(C#N)CCCC2)cc1
inactive: [9] 0.0267 | [10] 0.0194 | [11] 0.0111 | [12] -0.0325 | [13] -0.00588 | [14] -0.00768 | [15] -0.00204 | [16] -0.0249 | [17] 0.00934 | [18] -0.0211 | [19] -0.0197 | [20] 0.0222

O=c1cc(-c2ccc(O)cc2)oc2cc(O[C@@H]3O[C@H](CO)[C@@H](O)[C@H](O)[C@H]3O)cc(O)c12
inactive: [1] 0.0644 | [2] -0.097 | [3] 0.187 | [4] 0.117

Cc1c(NC(C)C)c(=O)n(-c2ccccc2)n1C
inactive: [1] 0.0695 | [2] 0.096 | [3] 0.0785 | [4] -0.00131

NS(=O)(=O)Cc1noc2ccccc12
inactive: [9] 0.0112 | [10] 0.0061 | [11] 0.00766 | [12] -0.00478 | [13] -0.0264 | [14] -0.00155 | [15] 0.0125 | [16] 0.0198 | [17] -0.0142 | [18] 0.024 | [19] -0.0716 | [20] -0.0114
